# Test results taken from the supplement of paper PMC8728848.
# The other results are listed elsewhere or left out.
# B1: EEA (Euonymus europaeus) (protein)
# chain: MASTIIATGPTYRVYCRAAPNYNMIVGKGVAFLAPIDETNELQYWYKDDTYSYIKDEAGLPAFSLVNKATGLTLKHSNHHPVPVKLVTYNPNVVDESVLWSQADDRGDGYSAIRSLTNPASHLEAAPLNDWSYNGAIIMGGVWIDAYNQQWKIEPHTG
# Columns and labels:
# Test in all cases: glycan array binding signal (z-score within array); higher = stronger binding
# Conditions in all cases: glycan notation: IUPAC condensed, linker removed
# [1] = target: Neu5Ac(a2-6)Gal(b1-4)GlcNAc(b1-6)[Gal(b1-3)GlcNAc(b1-3)]Gal(b1-4)Glc
# How it was run: (§1)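 Negative Z-scores can be read as non-binding. The Z-score is calculated within each array and then averaged across arrays of one protein sequence at different concentrations or buffers and across linkers. Arrays, 3228 in all, were curated from the Consortium for Functional Glycomics database and kept only where the protein sequence was available.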
# [2] = target: Neu5Ac(a2-6)Gal(b1-4)GlcNAc(b1-6)[Gal(b1-3)]GalNAc
# How it was run: as §1
# [3] = target: Neu5Ac(a2-6)Gal(b1-4)GlcNAc6S
# How it was run: as §1
# [4] = target: Neu5Ac(a2-6)GalNAc
# How it was run: as §1
# [5] = target: Neu5Ac(a2-6)GalNAc(b1-4)GlcNAc
# How it was run: as §1
# [6] = target: Neu5Ac(a2-6)GalNAc(b1-4)GlcNAc6S
# How it was run: as §1
# [7] = target: Neu5Ac(a2-6)GlcNAc(b1-4)GlcNAc
# How it was run: as §1
# [8] = target: Neu5Ac(a2-6)GlcNAc(b1-4)GlcNAc(b1-4)GlcNAc
# How it was run: as §1
# [9] = target: Neu5Ac(a2-8)Neu5Ac
# How it was run: as §1
# [10] = target: Neu5Ac(a2-8)Neu5Ac(a2-3)Gal(b1-3)GalNAc(b1-4)[Neu5Ac(a2-3)]Gal(b1-4)Glc
# How it was run: as §1
# [11] = target: Neu5Ac(a2-8)Neu5Ac(a2-3)Gal(b1-3)GalNAc(b1-4)[Neu5Ac(a2-8)Neu5Ac(a2-3)]Gal(b1-4)Glc
# How it was run: as §1
# [12] = target: Neu5Ac(a2-8)Neu5Ac(a2-3)Gal(b1-4)Glc
# How it was run: as §1
# [13] = target: Neu5Ac(a2-8)Neu5Ac(a2-3)Gal(b1-4)GlcNAc
# How it was run: as §1
# [14] = target: Neu5Ac(a2-8)Neu5Ac(a2-3)[Gal(b1-3)GalNAc(b1-4)]Gal(b1-4)Glc
# How it was run: as §1
# [15] = target: Neu5Ac(a2-8)Neu5Ac(a2-3)[GalNAc(b1-4)]Gal(b1-4)Glc
# How it was run: as §1
# [16] = target: Neu5Ac(a2-8)Neu5Ac(a2-8)Neu5Ac
# How it was run: as §1
# [17] = target: Neu5Ac(a2-8)Neu5Ac(a2-8)Neu5Ac(a2-3)Gal(b1-4)Glc
# How it was run: as §1
# [18] = target: Neu5Ac(a2-8)Neu5Ac(a2-8)Neu5Ac(a2-3)[Gal(b1-3)GalNAc(b1-4)]Gal(b1-4)Glc
# How it was run: as §1
# [19] = target: Neu5Ac(a2-8)Neu5Ac(a2-8)Neu5Ac(a2-3)[GalNAc(b1-4)]Gal(b1-4)Glc
# How it was run: as §1
# [20] = target: Neu5Ac(a2-8)Neu5Ac(a2-8)Neu5Ac(a2-8)Neu5Ac(a2-3)[GalNAc(b1-4)]Gal(b1-4)Glc
# How it was run: as §1
# [21] = target: Neu5Ac(a2-8)Neu5Gc(a2-3)Gal(b1-4)GlcNAc
# How it was run: as §1
# [22] = target: Neu5Ac(b1-6)GalNAc
# How it was run: as §1
# [23] = target: Neu5Ac(b2-6)Gal(b1-4)GlcNAc
# How it was run: as §1
# [24] = target: Neu5Ac(b2-6)GalNAc
# How it was run: as §1
# [25] = target: Neu5Ac9Ac(a2-3)Gal(b1-3)GlcNAc
# How it was run: as §1
# [26] = target: Neu5Ac9Ac(a2-3)Gal(b1-4)GlcNAc
# How it was run: as §1
# [27] = target: Neu5Ac9Ac(a2-6)Gal(b1-4)GlcNAc
# How it was run: as §1
# [28] = target: Neu5Gc(a2-3)Gal(b1-3)GlcNAc
# How it was run: as §1
# [29] = target: Neu5Gc(a2-3)Gal(b1-3)[Fuc(a1-4)]GlcNAc
# How it was run: as §1
# [30] = target: Neu5Gc(a2-3)Gal(b1-4)Glc
# How it was run: as §1
# [31] = target: Neu5Gc(a2-3)Gal(b1-4)GlcNAc
# How it was run: as §1
# [32] = target: Neu5Gc(a2-3)Gal(b1-4)GlcNAc(b1-3)Gal(b1-4)GlcNAc(b1-2)Man(a1-3)[Neu5Gc(a2-3)Gal(b1-4)GlcNAc(b1-3)Gal(b1-4)GlcNAc(b1-2)Man(a1-6)]Man(b1-4)GlcNAc(b1-4)GlcNAc
# How it was run: as §1
# [33] = target: Neu5Gc(a2-3)Gal(b1-4)[Fuc(a1-3)]GlcNAc
# How it was run: as §1
# [34] = target: Neu5Gc(a2-3)Gal(b1-4)[Fuc(a1-4)]GlcNAc
# How it was run: as §1
# [35] = target: Neu5Gc(a2-6)Gal(b1-4)GlcNAc
# How it was run: as §1
# [36] = target: Neu5Gc(a2-6)GalNAc
# How it was run: as §1
# [37] = target: Neu5Gc(a2-8)Neu5Ac(a2-3)Gal(b1-4)GlcNAc
# How it was run: as §1
# [38] = target: Neu5Gc(a2-8)Neu5Gc(a2-3)Gal(b1-4)GlcNAc
# How it was run: as §1
# [39] = target: Neu5Gc(a2-8)Neu5Gc(a2-3)Gal(b1-4)GlcNAc(b1-3)Gal(b1-4)GlcNAc
# How it was run: as §1
# [40] = target: Neu5Gc(a2-8)Neu5Gc(a2-6)Gal(b1-4)GlcNAc
# How it was run: as §1
# [41] = target: Neu5Gc(b2-6)Gal(b1-4)GlcNAc
# How it was run: as §1
binder,measurement,setting,value
B1,glycan array binding signal (z-score),[1],-0.23
same,glycan array binding signal (z-score),[2],-0.067
same,glycan array binding signal (z-score),[3],-0.213
same,glycan array binding signal (z-score),[4],-0.325
same,glycan array binding signal (z-score),[5],-0.171
same,glycan array binding signal (z-score),[6],-0.23
same,glycan array binding signal (z-score),[7],-0.235
same,glycan array binding signal (z-score),[8],-0.244
same,glycan array binding signal (z-score),[9],-0.192
same,glycan array binding signal (z-score),[10],-0.231
same,glycan array binding signal (z-score),[11],-0.154
same,glycan array binding signal (z-score),[12],-0.341
same,glycan array binding signal (z-score),[13],-0.253
same,glycan array binding signal (z-score),[14],-0.236
same,glycan array binding signal (z-score),[15],-0.154
same,glycan array binding signal (z-score),[16],-0.276
same,glycan array binding signal (z-score),[17],-0.256
same,glycan array binding signal (z-score),[18],-0.175
same,glycan array binding signal (z-score),[19],-0.063
same,glycan array binding signal (z-score),[20],-0.159
same,glycan array binding signal (z-score),[21],-0.119
same,glycan array binding signal (z-score),[22],-0.319
same,glycan array binding signal (z-score),[23],-0.235
same,glycan array binding signal (z-score),[24],-0.246
same,glycan array binding signal (z-score),[25],-0.218
same,glycan array binding signal (z-score),[26],-0.029
same,glycan array binding signal (z-score),[27],-0.172
same,glycan array binding signal (z-score),[28],-0.254
same,glycan array binding signal (z-score),[29],-0.224
same,glycan array binding signal (z-score),[30],-0.084
same,glycan array binding signal (z-score),[31],-0.196
same,glycan array binding signal (z-score),[32],-0.183
same,glycan array binding signal (z-score),[33],-0.232
same,glycan array binding signal (z-score),[34],-0.482
same,glycan array binding signal (z-score),[35],-0.14
same,glycan array binding signal (z-score),[36],-0.193
same,glycan array binding signal (z-score),[37],-0.251
same,glycan array binding signal (z-score),[38],-0.245
same,glycan array binding signal (z-score),[39],-0.241
same,glycan array binding signal (z-score),[40],-0.222
same,glycan array binding signal (z-score),[41],-0.224
